Laboratory results as given in PubChem BioAssay AID1347073 (National Center for Advancing Translational Sciences (NCATS), 2019).
In all, about 45,000 compounds went through this assay and about 200 (0.44%) were called active. The inconclusive results got no clear call from the source; some entries with a clear call stand among them for comparison. The call rests on the fitted dose curve; in most records, active means well fitted activation curve with a large enough effect; inconclusive means small, poorly fitted or top-dose-only effect; inactive means no such curve, though single readings can be large or run the other way. Where the call is inconclusive, the potency comes from a doubtful curve fit.

Test: qHTS of TDP-43 Inhibitors: NCGC Sytravon Library Screen; further: nearly all actives have a fitted effect of over 55% in size; on growth rescue (activation): 0% is about no effect
Details: yeast TDP-43 toxicity rescue, BacTiter-Glo growth, 24 h; growth rescue (activation): at 46.1 µM (top of the series)
Method in brief: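 TDP-43-expressing yeast, pregrown in raffinose, seeded at OD600 0.02 in galactose medium with compound for 24 hr at 30 deg C. Growth read by BacTiter-Glo luminescence, so rescue of toxicity appears as activation.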
Potency means the concentration at half of the fitted maximal effect; tags describe the fitted curve by direction and shape.

| Structure (SMILES) | Potency | growth rescue (activation) |
| --- | --- | --- |
| COc1ccc(CCNC(=O)c2cc(COc3c(F)cccc3F)on2)c(OC)c1 | inconclusive: 20 µM [activator, partial curve, poor fit] |  |
| CCOC(=O)c1ccoc1CN1CCN(S(=O)(=O)c2ccc(C)c(C)c2)CC1 |  | inactive: 10.5% |
| O=C(NCc1ccc(F)cc1)c1cc(C2CCCN(C(=O)C3CCCCC3)C2)on1 (stereo unspecified) |  | inconclusive: 53.3% [activator] |
| Cc1cccc(OCCn2cnc(Cl)c2Cl)c1 | inconclusive: 15.8 µM [activator, single point] |  |
| Oc1ccc2cc(Br)ccc2c1CN1CCCC1 | inconclusive: 11.2 µM [activator, single point] |  |
| CCCSc1ncc(Cl)c(C(=O)Nc2ccc(OC)cc2OC)n1 |  | inactive: 16% |
| O=C(NC(=S)NCCC1=CCCCC1)c1ccco1 | inconclusive: 15.8 µM [activator, single point] |  |
| Cc1cc(NS(=O)(=O)c2ccccc2)c([N+](=O)[O-])cc1C | inconclusive: 28.2 µM [activator, single point] |  |
| COc1ccc(-n2nc(C(=O)NCC(=O)N3CC(C)CC(C)C3)c3ccccc3c2=O)cc1OC (stereo unspecified) | inconclusive: 35.5 µM [activator, single point] |  |
| O=C(c1ccc(N2CCN(C(=O)c3ccccc3)CC2)cc1)c1cccc(F)c1 | inconclusive: 12.6 µM [activator, single point] |  |
| O=C(N/N=C/c1ccc2c(c1)OCO2)C(=O)N1CCCC1 |  | inactive: 10.5% |
| Cc1cc(C)cc(NC(=O)N2CCC3(CC2)Oc2ccccc2C(=O)N3Cc2ccccc2F)c1 |  | inactive: 5.56% |
| CC(C)C(=O)N1CCN(c2nc(-c3ccccc3)c3c(c2C#N)CC(C)(C)OC3)CC1 | inconclusive: 11.2 µM [activator, partial curve, poor fit] |  |
| CC(=O)Nc1cccc(C(=O)/C=C/c2ccc(C)cc2)c1 | inconclusive: 11.2 µM [activator, partial curve, poor fit] |  |
| O=C(NC1CCCc2ccccc21)c1ccc(F)cc1F (stereo unspecified) | inconclusive: 2.51 µM [activator, partial curve, poor fit] |  |
| Cc1ccccc1S(=O)Cc1ccc(C(=O)N2CCN(c3cccc(C)c3C)CC2)o1 (stereo unspecified) | active: 20 µM |  |
| Cc1ccc(/C=N/NC(=O)COc2ccc(Cl)c(C)c2)o1 |  | inactive: 32% |
| C#Cc1ccc(NC(=O)C2(C)CCN2C(=O)C2(c3ccccc3)CC2)cc1 (stereo unspecified) | inconclusive: 15.8 µM [activator, single point] |  |
| Cc1cc(OCC(=O)NCC2(N3CCN(C)CC3)CCCCC2)cc(C)c1Cl |  | inactive: 2.94% |
| CCCOc1ccc(N2CC(C(=O)Nc3cccc(Cl)c3Cl)CC2=O)cc1 (stereo unspecified) |  | inactive: 12.8% |
| Cc1ccccc1CSc1nnc(-c2ccccn2)n1C | inconclusive: 10 µM [activator, partial curve] |  |

| Structure (SMILES) | Potency | growth rescue (activation) |
| --- | --- | --- |
| COc1ccc(CCNC(=O)CCCn2nc(C)c([N+](=O)[O-])c2C)cc1OC |  | inactive: 7.1% |
| COc1ccc(NC(=O)Cn2c(CCC(=O)O)ccc2-c2ccccc2)cc1Cl |  | inactive: 25.8% |
| COc1ccc2ccc(O)c(CN(C)CC(=O)Nc3ccccc3C(F)(F)F)c2c1 | inconclusive: 20 µM [activator, partial curve, poor fit] |  |
| O=C(Nc1cccnc1)C1Cc2c(-c3ccccc3Oc3ccccc3)ccnc2O1 (stereo unspecified) | inconclusive: 20 µM [activator, single point] |  |
| CN(c1ccccc1)S(=O)(=O)c1cc(Cl)ccc1Cl | inconclusive: 17.8 µM [activator, single point] |  |
| CC(O)(c1ccc(F)c(F)c1)c1nc(-c2cc(F)cc(F)c2)cs1 (stereo unspecified) |  | inconclusive: -92.7% [activator] |
| COc1cccc(CN(C)S(=O)(=O)c2cccs2)c1 | inconclusive: 17.8 µM [activator, single point] |  |
| CC(O)(c1cccc(F)c1)c1nc(-c2ccccc2)cs1 (stereo unspecified) | inconclusive: 15.8 µM [activator, partial curve, poor fit] |  |
| O=S(=O)(Nc1ccc(-c2csc(-c3ccccc3)n2)cc1)c1ccccc1 | inconclusive: 14.1 µM [activator, partial curve, poor fit] |  |
| CC(C)CNC(=O)c1ccccc1NC(=O)CCSc1ccccc1 | inconclusive: 20 µM [activator, partial curve, poor fit] |  |
| O=C(COc1ccc(Cl)cc1)Nc1nc(-c2cccs2)cs1 | inconclusive: 2.24 µM [activator, full curve, poor fit] |  |
| CCOC(=O)c1oc2nc(CC(C)C)c3c(c2c1N)CCCC3 | inconclusive: 35.5 µM [activator, single point] |  |
| COc1ccc(NC(=O)c2csnn2)cc1Cl |  | inactive: 13.8% |
| O=C(CN1CCOCC1)N/N=C/c1ccc(-c2ccc(C(=O)O)cc2)o1 | inconclusive: 12.6 µM [activator, single point] |  |
| O=C(NCC(c1cccnc1)N1CCN(c2ccccc2F)CC1)C1CCCCC1 (stereo unspecified) |  | inactive: 7.62% |
| Cc1c([C@H]2[C@@H](CC#N)C2(C)C)c2ccccc2n1C | inconclusive: 11.2 µM [activator, partial curve, poor fit] |  |
| Cc1ccc(/C=N/NC(=O)CN2CCN(Cc3ccccc3)CC2)s1 |  | inactive: 19.6% |
| Cc1ccc(Nc2nnns2)cc1 | inconclusive: 10 µM [activator, partial curve, poor fit] |  |
| COc1cccc(CNC(=O)C2CCN(S(=O)(=O)c3ccc(Br)s3)CC2)c1 | inconclusive: 11.2 µM [activator, partial curve, poor fit] |  |
| Cc1cccc(-c2nnc(SCC(=O)C(C)(C)C)n2C)c1 | inconclusive: 35.5 µM [activator, single point] |  |
| CCC(C)c1ccc(O)c(NC(=S)NC(=O)c2cccnc2)c1 (stereo unspecified) | active: 10 µM |  |

| Structure (SMILES) | Potency | growth rescue (activation) |
| --- | --- | --- |
| S=c1sc2c(Cl)ncnc2n1-c1ccccc1 | inconclusive: 35.5 µM [activator, single point] |  |
| COc1cc(F)ccc1-c1csc(C(C)(O)c2ccccc2)n1 (stereo unspecified) | inconclusive: 17.8 µM [activator, partial curve, poor fit] |  |
| COc1ccc(NC(=O)C(Cc2ccccc2)n2cccc2)cc1 (stereo unspecified) | inconclusive: 14.1 µM [activator, single point] |  |
| COCCOc1cc(-n2cccc2)c(Cl)cc1Cl | inconclusive: 35.5 µM [activator, single point] |  |
| COCCNC(=S)N/N=C(\C)c1cc2ccccc2o1 | active: 12.6 µM |  |
| Cc1ccc(NC(=O)C2CCC(C(C)(C)C)CC2)cc1S(=O)(=O)N1CCOCC1 (stereo unspecified) | inconclusive: 25.1 µM [activator, partial curve, poor fit] |  |
| O=C(COC(=O)CCSc1ccc(Cl)cc1)NCc1ccc(Cl)cc1 | inconclusive: 22.4 µM [activator, single point] |  |
| N#C/C(=C\c1cccc([N+](=O)[O-])c1)c1ccccn1 | inconclusive: 7.94 µM [activator, partial curve] |  |
| Cc1csc(SCC(=O)NCCc2ccc(Cl)cc2Cl)n1 | inconclusive: 11.2 µM [activator, partial curve, poor fit] |  |
| COc1ccc2c(c1)CC/C2=N\OC(=O)c1cccc(C)c1 | inconclusive: 6.31 µM [activator, partial curve, poor fit] |  |
| O=C(O)c1ccccc1C(=O)NCCc1c(C(=O)O)[nH]c2ccc(F)cc12 | inconclusive: 14.1 µM [activator, partial curve, poor fit] |  |
| CC(NC(=O)/C=C/c1ccc(Br)cc1)c1ccccc1 (stereo unspecified) |  | inactive: -5.64% |
| O=C(COC(=O)CC1CC2CCC1C2)NCc1ccc(Cl)cc1 (stereo unspecified) | inconclusive: 11.2 µM [activator, single point] |  |
| COCc1cc(C)nc2sc(C(=O)Nc3ccccc3O)c(N)c12 |  | inactive: 22.7% |
| CCOC(=O)CCCn1nc(C)n2c(cc3sccc32)c1=O | inconclusive: 14.1 µM [activator, single point] |  |
| O=C(CCc1nc2ccccc2s1)OCc1ccccc1 | inconclusive: 15.8 µM [activator, partial curve, poor fit] |  |
| O=C(CSc1ccccc1F)Nc1ccc2c(c1)OCO2 | inconclusive: 10 µM [activator, partial curve, poor fit] |  |
| CCc1cccc(C)c1Nc1c(-c2ccc(SC)cc2)nc2sccn12 | inconclusive: 20 µM [activator, partial curve, poor fit] |  |
| Brc1ccc(CSc2nnc(-c3cccnc3)o2)cc1 | active: 12.6 µM |  |
| CCCCC(=O)NCc1ccccc1Cl |  | inactive: 8.59% |
| S=C1CCSc2ccc(Cl)cc2N1 | inconclusive: 3.16 µM [activator, partial curve, poor fit] |  |

| Structure (SMILES) | Potency | growth rescue (activation) |
| --- | --- | --- |
| Cc1ccc(C)c(NS(=O)(=O)c2ccc3[nH]c(=O)oc3c2)c1 |  | inactive: 13.3% |
| O=C(Nc1cc(-c2nc3ccccc3o2)ccc1Cl)c1ccc(Br)o1 |  | inactive: 0.843% |
| Cc1[nH]c2ccccc2c1N=Nc1ccccc1F | inconclusive: 6.31 µM [activator, single point] |  |
| COc1ccc(Br)cc1C(=O)Nc1ccc(N2CCCC2)cc1 |  | inactive: 3.15% |
| Cc1nn(-c2ccccc2)c(C)c1/C=C1\C(=O)N(C)C(=S)N1C | inconclusive: 14.1 µM [activator, partial curve, poor fit] |  |
| CCCCNC(=O)COC(=O)c1ccc(NC(C)=O)cc1 |  | inactive: -2.21% |
| CC(=O)Nc1ccc(NC(=O)c2ccc(-c3ccnn3C)c3ccoc23)cc1 |  | inactive: -1.42% |
| C=CCn1c(-c2cccs2)nc2nc3ccccc3nc21 | inconclusive: 11.2 µM [activator, single point] |  |
| Cc1cc(C(=O)COc2cc(F)ccc2[N+](=O)[O-])c(C)n1C1CC1 | inconclusive: 14.1 µM [activator, partial curve, poor fit] |  |
| COc1ccc(-n2nc(C(=O)NCC(=O)Nc3cccc(Cl)c3)c3ccccc3c2=O)cc1 |  | inactive: -1.75% |
| COc1cccc(C(C)(O)c2nc(-c3cccc(C#N)c3)cs2)c1 (stereo unspecified) |  | inconclusive: 101% [activator] |
| COc1ccccc1CNC(=S)Nc1cc(C)ccc1C | inconclusive: 12.6 µM [activator, partial curve, poor fit] |  |
| O=C(O)Cc1cn(-c2ccccc2)nc1-c1ccccc1 | inconclusive: 35.5 µM [activator, single point] |  |
| COc1ccc(-c2onc(C)c2-c2ccc3c(c2)OCCO3)c(O)c1 | inconclusive: 22.4 µM [activator, single point] |  |
| O=C(O)/C=C/C(=O)NC1CC1 |  | inactive: 7.19% |
| Cc1cccc(N2CCN(C(=O)C3CCC(CNS(=O)(=O)c4cccs4)CC3)CC2)c1C (stereo unspecified) | inconclusive: 35.5 µM [activator, partial curve, poor fit] |  |
| Cc1ccnc(NC(c2ccsc2)c2ccc3ccc(C)nc3c2O)c1 (stereo unspecified) |  | inactive: 5.64% |
| CC(C(=O)NCCC1=CCCCC1)c1ccc([N+](=O)[O-])cc1 (stereo unspecified) | inconclusive: 11.2 µM [activator, single point] |  |
